# Test results published in PubChem BioAssay AID206 (DTP/NCI, 2004).
# Inconclusive results are not listed. Not every entry of the source has a single result; some have several. They are shown here; other results are not. The source may hold further records. The records of an entry are repeated measurements (runs, samples, wells, individuals or studies). Starred links: 1 amine or outer side, 2 acyl side, 3 side chain; linkers in the order of their positions; H or OH if unused. Positions of bridges follow the written chain, without caps; N, C: chain ends. Non-standard residues stand in square brackets, D forms with d. Residues, ends and D or L forms follow the SMILES beside them. Chains are numbered I, II in the order given. Actinocin(9to1) = Cc1c2oc3c(C)ccc(C(=O)[*:1])c3nc-2c(C(=O)[*:2])c(N)c1=O; aThr = C[C@H](O)[C@H](N)C(=O)O; NMeV = CN[C@H](C(=O)O)C(C)C; Sar = CNCC(=O)O
# Test system: nude mice, HT29 intrarenal xenograft, tumor weight T/C
# Assay: NCI In Vivo Anticancer Drug Screen. Data for tumor model HT29;CX-1 Human Adenocarcinoma (MER+) (intrarenal inoculation) in NU/NU Swiss (nude) mice
# Conditions: endpoint: mean tumor weight change, higher = larger tumour
# Experimental: The antitumor activity of compounds was measured in mice bearing transplantable tumors. Survival or tumor size were measured and the results are expressed as the measurement made in the treated group (T) divided by the measurement made in the vehicle treated control group (C). The tumor model used in this assay is HT29;CX-1 Human Adenocarcinoma (MER+) (intrarenal inoculation) in NU/NU Swiss (nude) mice
# [1] = dose: 75.0 mg/kg/injection, schedule: Q04DX004 (sc), vehicle: saline with Tween-80
# [2] = dose: 150.0 mg/kg/injection, schedule: Q04DX004 (sc), vehicle: saline with Tween-80
compound,measurement,setting,value
CC[C@@]1(O)C[C@H](OC2CC(N(C)C)C(OC3CC(O)C(OC4CCC(=O)C(C)O4)C(C)O3)C(C)O2)c2c(cc3c(c2O)C(=O)c2c(O)cccc2C3=O)[C@H]1C(=O)OC (stereo not given in full),T/C,"dose: 1.0 mg/kg/injection, schedule: Q01DX010 (ip), vehicle: water",3 % of control and 56 % of control
same,T/C,"dose: 2.0 mg/kg/injection, schedule: Q01DX010 (ip), vehicle: water",-31 % of control and 39 % of control
OC(CBr)C(O)C(O)C(O)CBr (stereo not given),T/C,"dose: 60.0 mg/kg/injection, schedule: Q01DX010 (sc), vehicle: Klucel (hydroxypropylcellulose) (HPC)",34 % of control and 116 % of control
COC(=O)C(F)C(Br)C(=O)OC (stereo not given),T/C,[1],63 % of control and 295 % of control
CC(C)=CC(=O)OC1C2C(C)=CC(=O)C(O)C2(C)C2C3(O)OCC24C(CC(=O)OC14)C(C)C3O (stereo not given),T/C,"dose: 2.5 mg/kg/injection, schedule: Q04DX004 (sc), vehicle: distilled water + Tween-80",21 % of control and 75 % of control
same,T/C,"dose: 5.0 mg/kg/injection, schedule: Q04DX004 (sc), vehicle: distilled water + Tween-80",7 % of control and 96 % of control
"Cc1c2oc3c(C)ccc(C(=O)N[C@@H]4C(=O)N[C@H](C(C)C)C(=O)N5CCC[C@H]5C(=O)N(C)CC(=O)N(C)[C@@H](C(C)C)C(=O)O[C@H]4C)c3nc-2c(C(=O)N[C@@H]2C(=O)N[C@H](C(C)C)C(=O)N3CCC[C@H]3C(=O)N(C)CC(=O)N(C)[C@@H](C(C)C)C(=O)O[C@H]2C)c(N)c1=O (I: [aThr][dV]P[Sar][NMeV] / II: [aThr][dV]P[Sar][NMeV]; ester I:1-I:C, II:1-II:C; linker I:N-II:N via Actinocin(9to1))",T/C,"dose: 50.0 micrograms/kg/injection, schedule: Q01DX010 (sc), vehicle: saline",58 % of control and 121 % of control
same,T/C,"dose: 100.0 micrograms/kg/injection, schedule: Q01DX010 (sc), vehicle: saline",19 % of control and 49 % of control
same,T/C,"dose: 200.0 micrograms/kg/injection, schedule: Q01DX010 (sc), vehicle: saline",-21 % of control and 10 % of control
C=C1CC2(OC1=O)C(=O)N(C)c1ccc(I)cc12 (stereo not given),T/C,"dose: 300.0 mg/kg/injection, schedule: Q04DX004 (sc), vehicle: suspension in saline",77 % of control and 112 % of control
C=C(NC(=O)C(=C)NC(=O)c1csc(C2=NC3c4csc(n4)C4NC(=O)c5csc(n5)C(C(C)(O)C(C)O)NC(=O)C5CSC(=N5)/C(=C/C)NC(=O)C(C(C)O)NC(=O)c5csc(n5)C3(CC2)NC(=O)C(C)NC(=O)C(=C)NC(=O)C(=C)NC(=O)C(C(C)C)NC2C=Cc3c(C(C)O)cc(nc3C2O)C(=O)OC4C)n1)C(N)=O (stereo not given),T/C,"dose: 500.0 mg/kg/injection, schedule: Q04DX004 (sc), vehicle: suspension in saline",82 % of control and 168 % of control
same,T/C,"dose: 1000.0 mg/kg/injection, schedule: Q04DX004 (sc), vehicle: suspension in saline",-15 % of control and 81 % of control
CCCCCC(O)C1C(=O)OC(C)C(O)/C=C/C=C/C=C/C=C\C=C(\C)C(O)CC(O)CC(O)CC(O)CC(O)CC(O)CC1O (stereo not given),T/C,"dose: 300.0 mg/kg/injection, schedule: Q04DX004 (sc), vehicle: distilled water + alcohol",40 % of control and 86 % of control
COc1ccc(S(=O)(=O)N=N/C=C2\C=CC=CN2O)cc1OC,T/C,[2],69 % of control and 167 % of control
Nc1nc(=S)c2[nH]cnc2[nH]1,T/C,"dose: 1.56 mg/kg/injection, schedule: Q01DX010 (sc), vehicle: Klucel (hydroxypropylcellulose) (HPC)",94 % of control and 185 % of control
CN(C)c1nc(N(C)C)nc(N(C)C)n1,T/C,"dose: 60.0 mg/kg/injection, schedule: Q01DX010 (sc), vehicle: saline with Tween-80","-10 % of control, 78 % of control, 94 % of control"
same,T/C,"dose: 120.0 mg/kg/injection, schedule: Q01DX010 (sc), vehicle: saline with Tween-80","24 % of control, 31 % of control, 91 % of control"
O=C(CCCN1CCC(O)(c2cccc(C(F)(F)F)c2)CC1)c1ccc(F)cc1,T/C,"dose: 25.0 mg/kg/injection, schedule: Q01DX010 (sc), vehicle: Klucel (hydroxypropylcellulose) (HPC)","-8 % of control, 12 % of control, 41 % of control"
same,T/C,"dose: 50.0 mg/kg/injection, schedule: Q01DX010 (sc), vehicle: Klucel (hydroxypropylcellulose) (HPC)","25 % of control, 48 % of control, 56 % of control"
same,T/C,"dose: 100.0 mg/kg/injection, schedule: Q01DX010 (sc), vehicle: Klucel (hydroxypropylcellulose) (HPC)",-3 % of control and 43 % of control
CN(CO)c1nc(N(C)CO)nc(N(C)CO)n1,T/C,"dose: 50.0 mg/kg/injection, schedule: Q01DX010 (sc), vehicle: saline",41 % of control and 75 % of control
same,T/C,"dose: 50.0 mg/kg/injection, schedule: Q01DX010 (sc), vehicle: suspension in saline",9 % of control and 80 % of control
same,T/C,"dose: 100.0 mg/kg/injection, schedule: Q01DX010 (sc), vehicle: suspension in saline",2 % of control and 28 % of control
O=C1C2CC=CCC2C(=O)N1SC(Cl)(Cl)Cl (stereo not given),T/C,[1],66 % of control and 120 % of control
same,T/C,[2],66 % of control and 119 % of control
